Assay results taken from PMC9911399, “Two distinct binding modes provide the RNA-binding protein RbFox with extraordinary sequence specificity”.
Residue numbers refer to the chain shown, from its start. The list shows a part of the results.

T1: RBFOX1 RRM RbFoxmut (Fox-RRM*) (Homo sapiens, UniProt Q9NWB1 109-208, R118D;E147R;N151S;E152T)
T1 sequence: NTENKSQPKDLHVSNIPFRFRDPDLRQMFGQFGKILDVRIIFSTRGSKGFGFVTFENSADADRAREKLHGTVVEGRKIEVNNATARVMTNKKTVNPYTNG

B1: GGUAACU (DNA:RNA)
RNA: GGGAGACCGGAAUUCAGAUUGUCCGGUAACUUUAAAUCCCGUCGUAGCCACCA
DNA 1: CAATCTGAATTCCGGTCTCCC
DNA 2: TGGTGGCTACGACGGGATT
B2: UACGGUC (DNA:RNA)
RNA: GGGAGACCGGAAUUCAGAUUGUCCUACGGUCUUAAAUCCCGUCGUAGCCACCA
DNA 1: CAATCTGAATTCCGGTCTCCC
DNA 2: TGGTGGCTACGACGGGATT
B3: GAUUUCG (DNA:RNA)
RNA: B1 RNA with G26A, A28U, A29U, U31G
DNA 1: CAATCTGAATTCCGGTCTCCC
DNA 2: TGGTGGCTACGACGGGATT
B4: UUGACAG (DNA:RNA)
RNA: B1 RNA with G25U, G26U, U27G, A29C, C30A, U31G
DNA 1: CAATCTGAATTCCGGTCTCCC
DNA 2: TGGTGGCTACGACGGGATT
B5: ACCUUUC (DNA:RNA)
RNA: B2 RNA with U25A, A26C, G28U, G29U
DNA 1: CAATCTGAATTCCGGTCTCCC
DNA 2: TGGTGGCTACGACGGGATT
B6: GUCCCUG (DNA:RNA)
RNA: B2 RNA with U25G, A26U, G28C, G29C, C31G
DNA 1: CAATCTGAATTCCGGTCTCCC
DNA 2: TGGTGGCTACGACGGGATT
B7: AUGCACU (DNA:RNA)
RNA: B1 RNA with G25A, G26U, U27G, A28C
DNA 1: CAATCTGAATTCCGGTCTCCC
DNA 2: TGGTGGCTACGACGGGATT
B8: UCACUCU (DNA:RNA)
RNA: B1 RNA with G25U, G26C, U27A, A28C, A29U
DNA 1: CAATCTGAATTCCGGTCTCCC
DNA 2: TGGTGGCTACGACGGGATT
B9: ACUAAUU (DNA:RNA)
RNA: B1 RNA with G25A, G26C, C30U
DNA 1: CAATCTGAATTCCGGTCTCCC
DNA 2: TGGTGGCTACGACGGGATT
B10: AACCGAC (DNA:RNA)
RNA: B2 RNA with U25A, G28C, U30A
DNA 1: CAATCTGAATTCCGGTCTCCC
DNA 2: TGGTGGCTACGACGGGATT
B11: UAAGAGC (DNA:RNA)
RNA: B2 RNA with C27A, G29A, U30G
DNA 1: CAATCTGAATTCCGGTCTCCC
DNA 2: TGGTGGCTACGACGGGATT
B12: GCUAUGG (DNA:RNA)
RNA: B1 RNA with G26C, A29U, C30G, U31G
DNA 1: CAATCTGAATTCCGGTCTCCC
DNA 2: TGGTGGCTACGACGGGATT
B13: UUUGUUU (DNA:RNA)
RNA: B2 RNA with A26U, C27U, G29U, C31U
DNA 1: CAATCTGAATTCCGGTCTCCC
DNA 2: TGGTGGCTACGACGGGATT
B14: GACCUUG (DNA:RNA)
RNA: B2 RNA with U25G, G28C, G29U, C31G
DNA 1: CAATCTGAATTCCGGTCTCCC
DNA 2: TGGTGGCTACGACGGGATT
B15: UAGCGGU (DNA:RNA)
RNA: B2 RNA with C27G, G28C, U30G, C31U
DNA 1: CAATCTGAATTCCGGTCTCCC
DNA 2: TGGTGGCTACGACGGGATT
B16: CCAAUUA (DNA:RNA)
RNA: B1 RNA with G25C, G26C, U27A, A29U, C30U, U31A
DNA 1: CAATCTGAATTCCGGTCTCCC
DNA 2: TGGTGGCTACGACGGGATT
B17: GCAUGAG (DNA:RNA)
RNA: B1 RNA with G26C, U27A, A28U, A29G, C30A, U31G
DNA 1: CAATCTGAATTCCGGTCTCCC
DNA 2: TGGTGGCTACGACGGGATT
B18: GGAAAUA (DNA:RNA)
RNA: B1 RNA with U27A, C30U, U31A
DNA 1: CAATCTGAATTCCGGTCTCCC
DNA 2: TGGTGGCTACGACGGGATT
B19: AGCGGGC (DNA:RNA)
RNA: B2 RNA with U25A, A26G, U30G
DNA 1: CAATCTGAATTCCGGTCTCCC
DNA 2: TGGTGGCTACGACGGGATT
B20: AUUCGUG (DNA:RNA)
RNA: B2 RNA with U25A, A26U, C27U, G28C, C31G
DNA 1: CAATCTGAATTCCGGTCTCCC
DNA 2: TGGTGGCTACGACGGGATT
B21: CAAGGCG (DNA:RNA)
RNA: B2 RNA with U25C, C27A, U30C, C31G
DNA 1: CAATCTGAATTCCGGTCTCCC
DNA 2: TGGTGGCTACGACGGGATT
B22: AUUACGA (DNA:RNA)
RNA: B1 RNA with G25A, G26U, A29C, C30G, U31A
DNA 1: CAATCTGAATTCCGGTCTCCC
DNA 2: TGGTGGCTACGACGGGATT
B23: UUACUUG (DNA:RNA)
RNA: B2 RNA with A26U, C27A, G28C, G29U, C31G
DNA 1: CAATCTGAATTCCGGTCTCCC
DNA 2: TGGTGGCTACGACGGGATT
B24: ACAGGGA (DNA:RNA)
RNA: B2 RNA with U25A, A26C, C27A, U30G, C31A
DNA 1: CAATCTGAATTCCGGTCTCCC
DNA 2: TGGTGGCTACGACGGGATT
B25: AGCCUCG (DNA:RNA)
RNA: B1 RNA with G25A, U27C, A28C, A29U, U31G
DNA 1: CAATCTGAATTCCGGTCTCCC
DNA 2: TGGTGGCTACGACGGGATT
B26: AACGAUG (DNA:RNA)
RNA: B2 RNA with U25A, G29A, C31G
DNA 1: CAATCTGAATTCCGGTCTCCC
DNA 2: TGGTGGCTACGACGGGATT
B27: UAGUUGA (DNA:RNA)
RNA: B2 RNA with C27G, G28U, G29U, U30G, C31A
DNA 1: CAATCTGAATTCCGGTCTCCC
DNA 2: TGGTGGCTACGACGGGATT
B28: CUGUCCG (DNA:RNA)
RNA: B1 RNA with G25C, G26U, U27G, A28U, A29C, U31G
DNA 1: CAATCTGAATTCCGGTCTCCC
DNA 2: TGGTGGCTACGACGGGATT
B29: CCGCUGU (DNA:RNA)
RNA: B1 RNA with G25C, G26C, U27G, A28C, A29U, C30G
DNA 1: CAATCTGAATTCCGGTCTCCC
DNA 2: TGGTGGCTACGACGGGATT
B30: AAGUCAG (DNA:RNA)
RNA: B2 RNA with U25A, C27G, G28U, G29C, U30A, C31G
DNA 1: CAATCTGAATTCCGGTCTCCC
DNA 2: TGGTGGCTACGACGGGATT
B31: CUUAGGU (DNA:RNA)
RNA: B1 RNA with G25C, G26U, A29G, C30G
DNA 1: CAATCTGAATTCCGGTCTCCC
DNA 2: TGGTGGCTACGACGGGATT

The binders below were run against T1, RBFOX1 RRM RbFoxmut (Fox-RRM*) (assay: EMSA; HiTS-Eq, 1 nM pool, 10 min; buffer printed only for the single-RNA assays: 10 mM Tris pH 7.5, 150 mM NaCl, 3.4 mM EDTA, 0.001% NP-40, 30 C). Conditions: tags: His6 N-terminal (pET28a); label: 5' 32P.
In short: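 These values rest on relative association constants, computed from read-count changes of each RNA species versus the control reaction and normalised to the cognate motif. Reads came from free RNA recovered by 8% native PAGE after purified RbFox RRM (wild type or mutant) at increasing concentrations was equilibrated for 10 min in 50 µL with 1 nM of a 5′-radiolabelled pool with 7 randomized nucleotides and DNA-annealed flanks.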

| Binder | binding signal |
| --- | --- |
| B1 | 0.0653 KA relative to UGCAUGU |
| B2 | 0.158 KA relative to UGCAUGU |
| B3 | 0.0675 KA relative to UGCAUGU |
| B4 | 0.0597 KA relative to UGCAUGU |
| B5 | 0.0438 KA relative to UGCAUGU |
| B6 | 0.0884 KA relative to UGCAUGU |
| B7 | 0.088 KA relative to UGCAUGU |
| B8 | 0.0554 KA relative to UGCAUGU |
| B9 | 0.0778 KA relative to UGCAUGU |
| B10 | 0.0558 KA relative to UGCAUGU |
| B11 | 0.0654 KA relative to UGCAUGU |
| B12 | 0.137 KA relative to UGCAUGU |
| B13 | 0.0998 KA relative to UGCAUGU |
| B14 | 0.0871 KA relative to UGCAUGU |
| B15 | 0.106 KA relative to UGCAUGU |
| B16 | 0.135 KA relative to UGCAUGU |

| Binder | binding signal |
| --- | --- |
| B17 | 0.771 KA relative to UGCAUGU |
| B18 | 0.0901 KA relative to UGCAUGU |
| B19 | 0.109 KA relative to UGCAUGU |
| B20 | 0.141 KA relative to UGCAUGU |
| B21 | 0.0947 KA relative to UGCAUGU |
| B22 | 0.0906 KA relative to UGCAUGU |
| B23 | 0.0888 KA relative to UGCAUGU |
| B24 | 0.0824 KA relative to UGCAUGU |
| B25 | 0.199 KA relative to UGCAUGU |
| B26 | 0.0668 KA relative to UGCAUGU |
| B27 | 0.0901 KA relative to UGCAUGU |
| B28 | 0.129 KA relative to UGCAUGU |
| B29 | 0.127 KA relative to UGCAUGU |
| B30 | 0.0887 KA relative to UGCAUGU |
| B31 | 0.133 KA relative to UGCAUGU |
